Data on 36 molecules can be found in the supplement of paper PMC8007513.

SMILES strings stand for the structures. Where a name gives a salt, the structure may show the parent alone. ± gives the standard error. Among all 1,300 compounds or so, about 75 (6%) showed an effect of 50% or more. Some of the results follow.

This assay relates to Trichoderma virens ATCC 9645. The experiment in a line: growth yield (OD600) relative to untreated control; higher = less growth inhibition. Particulars: compound concentration: 100 uM. Summed up:
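A biocide at 200 ng ml^−1 was co-applied to some wells, and library compounds were present in all test wells at 100 μM final. The wells held 100 μl of Trichoderma virens ATCC 9645 spores at 15,000 spores ml^−1 in potato dextrose broth, grown at 30 °C in 96-well plates, with OD600 read at 40 h and 72 h. Results are relative growth against the control without either agent, averaged across duplicate screens.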

For the molecule `CC(C)(C)CC(C)(C)c1ccc(OCCOCC[N+](C)(C)Cc2ccccc2)cc1` [Benzethonium chloride], the growth yield runs as follows: (40 h) 1.75 ± 0.16%; (72 h) 1.78 ± 0.1%.
For `CC(C)NCC(O)COc1cccc2[nH]ccc12` (configuration not stated) [Pindolol] the same measures were 102 ± 2.2% and 103 ± 1.5%.
On to `OC(CCN1CCCC1)(c1ccccc1)C1CCCCC1` (configuration not stated) [Procyclidine hydrochloride], for which the growth yield reads like this: (40 h) 97.69 ± 0.79%; (72 h) 98.17 ± 0.63%.
With `CC(CN(C)C)CN1c2ccccc2CCc2ccccc21` (configuration not stated) [Trimipramine maleate salt], the growth yield reads like this: (40 h) 92.6 ± 2.7%; (72 h) 96.3 ± 2.7%.
For `CC(C)C(=O)c1c(C(C)C)nn2ccccc12` [Ibudilast], in that order: 72.7 ± 1.6% and 73.83 ± 0.63%.
For `CC12CC3CC(C)(C1)CC(N)(C3)C2` [Memantine Hydrochloride] the same measures were 99.4 ± 9.8% and 97.6 ± 6.4%.
For `C#C[C@]1(O)CC[C@H]2[C@@H]3CCC4=Cc5oncc5C[C@]4(C)[C@H]3CC[C@@]21C` [Danazol] the same measures were 83.39 ± 0.79% and 87.15 ± 0.32%.
Regarding `O=C(Nc1ccc([N+](=O)[O-])cc1Cl)c1cc(Cl)ccc1O` [Niclosamide], the growth yield (40 h) was found to be 96.1 ± 0.16% and the growth yield (72 h) is 96.59 ± 0.1%.
For `CCOc1ccc(Cc2nccc3cc(OCC)c(OCC)cc23)cc1OCC` [Ethaverine hydrochloride] the same measures were 112 ± 16% and 104 ± 10%.
Molecule `CCC[C@@H]1C[C@@H](C(=O)N[C@@H]([C@H]2O[C@H](SC)[C@H](O)[C@@H](O)[C@H]2O)[C@@H](C)O)N(C)C1` [Lincomycin hydrochloride] yielded a growth yield (40 h) of 99.6 ± 2.1% and a growth yield (72 h) of 102.7 ± 0.73%.
For `CCN(CC)CCN[C@@H](C(=O)OCCC(C)C)c1ccccc1` [Camylofine chlorhydrate], in that order: 104 ± 1.8% and 102 ± 1.5%.
For `CN1CCCN=C1/C=C/c1cccs1` [Pyrantel tartrate], in that order: 96.1 ± 2.7% and 99.2 ± 3.8%.
In the case of `NNC(=O)c1ccncc1` [Isoniazid], the growth yield runs as follows: (40 h) 98.8 ± 0.32%; (72 h) 99.8 ± 2.3%.
For `CC1(C)O[C@@H]2C[C@H]3[C@@H]4C[C@H](F)C5=CC(=O)CC[C@]5(C)[C@H]4[C@@H](O)C[C@]3(C)[C@]2(C(=O)CO)O1` [Flurandrenolide] the same measures were 102 ± 1.9% and 97.2 ± 2.6%.
As for `O=C(O)c1cccnc1` [Niacin], the growth yield runs as follows: (40 h) 99.75 ± 0.32%; (72 h) 97.5 ± 1.5%.
For `CCCCc1oc2ccccc2c1C(=O)c1cc(I)c(OCCN(CC)CC)c(I)c1` [Amiodarone hydrochloride], in that order: 3.18% and 2.94%.
In the case of `O=c1[nH]c(=O)n([C@H]2C[C@H](O)[C@@H](CO)O2)cc1I` [Idoxuridine], the growth yield by setting is: (40 h) 102 ± 3.8%; (72 h) 99.4 ± 3.1%.
For `Cc1cccc(N(C)C(=S)Oc2ccc3ccccc3c2)c1` [Tolnaftate] the same measures were 0% and 0%.
For `CCN1CCCC1CNC(=O)c1cc(S(N)(=O)=O)ccc1OC` (configuration not stated) [Sulpiride], in that order: 100.5 ± 0.16% and 98.48 ± 0.32%.
Molecule `COc1ccc(-c2ccc3cc(C(=O)O)ccc3c2)cc1C12CC3CC(CC(C3)C1)C2` [Adapalene] displayed a growth yield (40 h) of 107 ± 1.9% and a growth yield (72 h) of 106.6 ± 0.84%.
For `O=C(O)CCC(=O)c1ccc(-c2ccccc2)cc1` [Fenbufen] the same measures were 79.4 ± 6% and 76 ± 3.2%.
For `CN1CCN2c3ccccc3Cc3ccccc3C2C1` (configuration not stated) [Mianserine hydrochloride], in that order: 97.7 ± 2.1% and 99.21 ± 0.21%.
For `N[C@@H](Cc1ccc(O)c(O)c1)C(=O)O` [Levodopa] the same measures were 99 ± 5.6% and 97.2 ± 2.2%.
`CCCCc1ncc(/C=C(\Cc2cccs2)C(=O)O)n1Cc1ccc(C(=O)O)cc1` [Eprosartan mesylate]: the growth yield is, setting by setting: (40 h) 98.3 ± 5.6%; (72 h) 94.08 ± 0.94%.
`O=C(NC(Cc1cc(=O)[nH]c2ccccc12)C(=O)O)c1ccc(Cl)cc1` (configuration not stated) [Rebamipide]: the growth yield is, setting by setting: (40 h) 99.1 ± 1.9%; (72 h) 96.5 ± 1.9%.
As for `CC(C)(C)NC[C@H](O)COc1cccc2c1CCCC2=O` [(-) -Levobunolol hydrochloride], the growth yield runs as follows: (40 h) 102 ± 3.6%; (72 h) 99.2 ± 3.1%.
As to `C[N+](C)(C)CCOC(N)=O` [Carbachol], the growth yield came out at 103 ± 7.2% (40 h) and 98.5 ± 6% (72 h).
For `Nc1ncn(C2OC(CO)C(O)C2O)c(=O)n1` (configuration not stated) [Azacytidine-5] the same measures were 89.4 ± 5.9% and 88.4 ± 4.3%.
On to `CCOC(=O)C1=C(C)NC(C)=C(C(=O)OC)C1c1cccc(Cl)c1Cl` (configuration not stated) [Felodipine], for which the growth yield reads like this: (40 h) 92.8%; (72 h) 94.2%.
Take `C[C@H](CCC(=O)O)[C@H]1CC[C@H]2[C@@H]3C(=O)C[C@@H]4CC(=O)CC[C@]4(C)[C@H]3CC(=O)[C@]12C` [Dehydrocholic acid]: the growth yield runs as follows: (40 h) 97.7 ± 2.7%; (72 h) 97.7 ± 2.5%.
For `O=C1c2c(O)ccc(O)c2C(=O)c2c(NCCNCCO)ccc(NCCNCCO)c21` [Mitoxantrone dihydrochloride], in that order: 2.86 ± 2.9% and 0.21 ± 0.21%.
In the case of `CCN(CC)CCNC(=O)c1cc(Br)c(N)cc1OC` [Bromopride], the growth yield reads like this: (40 h) 98.96 ± 0.48%; (72 h) 95.96 ± 0.1%.
For `CCCCC(=O)N(Cc1ccc(-c2ccccc2-c2nnn[nH]2)cc1)[C@H](C(=O)O)C(C)C` [Valsartan] the same measures were 97.5 ± 2.5% and 95.02 ± 0.63%.
In the case of `OC(CCN1CCCCC1)(c1ccccc1)c1ccccc1` [Pridinol methanesulfonate salt], the growth yield reads like this: (40 h) 97.4 ± 2.7%; (72 h) 89.8 ± 7.8%.
`CC(C)NNC(=O)c1ccncc1` [Iproniazide phosphate]: the growth yield runs as follows: (40 h) 102 ± 1.3%; (72 h) 101 ± 3.5%.
With `O=C1c2cccc(O)c2C(=O)c2c(O)cccc21` [1,8-Dihydroxyanthraquinone], the growth yield by setting is: (40 h) 85.8 ± 11%; (72 h) 87.2 ± 8.7%.
